From PMC8117158, “Structural Basis of RICs Iron Donation for Iron-Sulfur Cluster Biogenesis” (Frontiers in Microbiology, 2021)

Biological target: T1, IscS^C–GFP (E. coli K-12, UniProt P0A6B7 1-404)
T1 construct: IscS, cysteine desulfurase, E. coli K-12, gene amplified from genomic DNA; source: E. coli BL21(DE3) Gold, co-transformed (pMRBAD-link-C-GFP), in cells; not shown: C-GFP fragment of GFP, C-terminal, kept
T1 sequence (looked up): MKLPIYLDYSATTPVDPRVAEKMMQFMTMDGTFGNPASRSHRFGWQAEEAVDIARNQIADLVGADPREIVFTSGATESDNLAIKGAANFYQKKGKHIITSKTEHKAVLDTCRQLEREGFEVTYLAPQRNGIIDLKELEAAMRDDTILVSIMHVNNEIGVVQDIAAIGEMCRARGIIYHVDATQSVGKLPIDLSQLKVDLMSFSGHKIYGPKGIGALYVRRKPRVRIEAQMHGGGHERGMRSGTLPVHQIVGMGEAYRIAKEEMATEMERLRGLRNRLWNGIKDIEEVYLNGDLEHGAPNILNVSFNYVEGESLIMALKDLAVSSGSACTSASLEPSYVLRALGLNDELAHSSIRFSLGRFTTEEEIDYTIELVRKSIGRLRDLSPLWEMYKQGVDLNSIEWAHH
Experiment: split reporter (BiFC, NanoBiT); BiFC by reconstitution of GFP from N-GFP and C-GFP fusions co-expressed in E. coli BL21(DE3) Gold; fluorescence microscopy of cells on agarose slides, normalised to empty vectors
Conditions: partners not purified

B1: IscU^N–GFP (natural protein, E. coli K-12, UniProt P0ACD4 1-128, looked up)
chain: MAYSEKVIDHYENPRNVGSFDNNDENVGSGMVGAPACGDVMKLQIKVNDEGIIEDARFKTYGCGSAIASSSLVTEWVKGKSLDEAQAIKNTDIAEELELPPVKIHCSILAEDAIKAAIADYKSKREAK
notes: IscU, E. coli K-12, gene amplified from genomic DNA; source: E. coli BL21(DE3) Gold, co-transformed (pET11a-link-N-GFP), in cells; not shown: N-GFP fragment of GFP, N-terminal, kept
fold fluorescence over the control: 3 fold
